Reference: paper PMC7819943, “Rice protein-binding microarrays: a tool to detect cis-acting elements near promoter regions in rice”
The other results are listed elsewhere or left out.

target: T1, OsWOX13 (Oryza sativa, UniProt Q5QMM3 1-267); experiment: protein-binding microarray (RPBM); PBS, 2% BSA, 51.3 ng/ul salmon testes DNA, 50 uM zinc acetate, 200 nM TF, 25 C, 1 h; high values mean tight binding; conditions: protein: recombinant; tags: N-terminal polyhistidine and DsRed monomer fusion (pET32a); label: CyDye5-dUTP incorporated in the synthesized complementary strand; 3' TTTTT single-stranded linker to array surface; dsDNA, one strand shown
T1 sequence: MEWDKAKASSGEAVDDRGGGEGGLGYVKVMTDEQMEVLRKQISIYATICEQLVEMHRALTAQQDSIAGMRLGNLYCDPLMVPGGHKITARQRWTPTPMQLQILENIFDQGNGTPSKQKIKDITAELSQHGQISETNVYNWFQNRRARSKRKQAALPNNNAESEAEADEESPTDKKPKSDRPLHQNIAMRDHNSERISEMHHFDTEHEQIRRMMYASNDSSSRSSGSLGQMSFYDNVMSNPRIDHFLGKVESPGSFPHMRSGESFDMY
In short: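 Binding signal is reported as fluorescence intensity per feature (arbitrary units) from an Axon 4000B scanner. Incubation used 200 nM of each Ni–NTA-purified, N-terminally polyhistidine- and DsRed-fused transcription factor from E. coli BL21-CodonPlus on a double-stranded custom Agilent array for 1 h at 25 °C, with 50 µM zinc acetate in the buffer, followed by washing.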

| Sequence | binding signal |
| --- | --- |
| AACGCAATCATCGAAACAGACCAACTGCACGTCTGCACAGCGGAGTCACCTAGTGCAG | 6840 fluorescence intensity (a.u.) |
| CTAGAATCAATCAAACAATCCTTGCAATTCCCCAACCCTACGGAGTCACCTAGTGCAG | 15300 fluorescence intensity (a.u.) |
| CTTAAAATTATGGTAGATCAAAGACAAAATGATCAATAGCCGGAGTCACCTAGTGCAG | 3980 fluorescence intensity (a.u.) |
| ACAACTAATTTAACACGAACAATCAACCTAGATTTTCCCGCGGAGTCACCTAGTGCAG | 24000 fluorescence intensity (a.u.) |
| AAGCCTAATTAACGAGAGCTGCTGCTAGCTGGCTCAGGCTCGGAGTCACCTAGTGCAG | 8820 fluorescence intensity (a.u.) |
| TCATTTAATTAGATCTTCATTTCCATCCAGCGTACTTAAACGGAGTCACCTAGTGCAG | 19400 fluorescence intensity (a.u.) |
| CCAATCAATCAAGCAGCTGCTGGCTAGCTAGCTTGCACTGCGGAGTCACCTAGTGCAG | 30700 fluorescence intensity (a.u.) |
| ACAATGATTTGTCAACACCTTTCTGCACAATGTATATATCCGGAGTCACCTAGTGCAG | 19000 fluorescence intensity (a.u.) |
| TGTTTTACTCTCAATCTAGATTGTTTTAGATCAATTATAACGGAGTCACCTAGTGCAG | 4880 fluorescence intensity (a.u.) |
| ACATAACATATGAGATTGAAATTTCTTGAACCATACATTACGGAGTCACCTAGTGCAG | 9950 fluorescence intensity (a.u.) |
| CGTTCTAGGCCACTAAATTGACACGACAGGGCCGGGTTAGCGGAGTCACCTAGTGCAG | 12300 fluorescence intensity (a.u.) |
| CTAAAACCGGATCAATTGACATCCCTCGACGGTTTACATTCGGAGTCACCTAGTGCAG | 4700 fluorescence intensity (a.u.) |
| TGTTAATGAAATCAATACGAATGTGGAAAATGCTAGAATGCGGAGTCACCTAGTGCAG | 6160 fluorescence intensity (a.u.) |
| ATTCATTAACATTAATATAAATGTAGAAAATGATAGAATGCGGAGTCACCTAGTGCAG | 4520 fluorescence intensity (a.u.) |
| ATTAGTAGATAATCTATAAATCAATTCGTAGATTACTTACCGGAGTCACCTAGTGCAG | 5400 fluorescence intensity (a.u.) |
| AGATGTCTGTTAATTTCCACCCCTCATTTGCCAATACCAACGGAGTCACCTAGTGCAG | 4190 fluorescence intensity (a.u.) |
| ATTATTGATTTGATGAAACTAATTTAGTATTATAAATATTCGGAGTCACCTAGTGCAG | 34600 fluorescence intensity (a.u.) |
| TTGGATTGGAGTGATTGCGCTTTTGGAGAAATTGGTTTTGCGGAGTCACCTAGTGCAG | 45700 fluorescence intensity (a.u.) |
| CAGTAACTTTTAATTAGTTACTGCTCGCGGCGGCAGATGCCGGAGTCACCTAGTGCAG | 10500 fluorescence intensity (a.u.) |
| TCTAAAGAAATTTTCTCTGTCAATAGATGATTCCATCACCCGGAGTCACCTAGTGCAG | 3900 fluorescence intensity (a.u.) |
| TTTTAGGATGATTTAATTGTAAATTTAAAATTAAAATGGTCGGAGTCACCTAGTGCAG | 35400 fluorescence intensity (a.u.) |
| CACTAATGTTCAACTGCCAATCTATTGTAGTACAGCAAGCCGGAGTCACCTAGTGCAG | 8980 fluorescence intensity (a.u.) |
| TAAATTCTGCTTAGACATAATTGTGTATCTGTGCTCAAAGCGGAGTCACCTAGTGCAG | 3530 fluorescence intensity (a.u.) |
| AACCGAAAATTATTATTTTAATCGGCGTGGTGTCCACTGGCGGAGTCACCTAGTGCAG | 4880 fluorescence intensity (a.u.) |
| AGTTAATTATGTGCCGGTCCCCGCTGTTGTCCACCATCCGCGGAGTCACCTAGTGCAG | 30600 fluorescence intensity (a.u.) |
| ATGGTTAATGGACATGTTGTATCTGGTATTTCGGTTCAAGCGGAGTCACCTAGTGCAG | 8630 fluorescence intensity (a.u.) |
| CCCTAGATTATTAATGTCCTCCTCCTCATCATCACCATCTCGGAGTCACCTAGTGCAG | 8950 fluorescence intensity (a.u.) |

| Sequence | binding signal |
| --- | --- |
| CCACAAACGTGGCAAAGATTGACACCGAATCTCTGACGTGCGGAGTCACCTAGTGCAG | 6070 fluorescence intensity (a.u.) |
| CTTGGTTAATTTCCTTTGAGTCTATCTCTCTCATCCAATTCGGAGTCACCTAGTGCAG | 4410 fluorescence intensity (a.u.) |
| CTACTATTTTGAAAGTGATTGGTTCTACAAATTTCTTAGTCGGAGTCACCTAGTGCAG | 12200 fluorescence intensity (a.u.) |
| AGTATGTACCAGCACAAATTAATTAATGCAACACACACACCGGAGTCACCTAGTGCAG | 4760 fluorescence intensity (a.u.) |
| ATAATATGATCTGTTTAACCCAATTTAGCACTTAGAGATTCGGAGTCACCTAGTGCAG | 4790 fluorescence intensity (a.u.) |
| CCATCTCTGATTGCAAGCGCGACTGCGCGACATCCATCCACGGAGTCACCTAGTGCAG | 11000 fluorescence intensity (a.u.) |
| TTAATTAATTGAAAGGATATAATTTCTTTCTCGAATTAATCGGAGTCACCTAGTGCAG | 33000 fluorescence intensity (a.u.) |
| TTTGGATTGGCCAGAACAAGATATACTTTCGAATCTTTTGCGGAGTCACCTAGTGCAG | 11300 fluorescence intensity (a.u.) |
| CGGTGATTAAAACCGAGGTGTTCTCACGGTCGCGGCATGACGGAGTCACCTAGTGCAG | 6090 fluorescence intensity (a.u.) |
| AGGAACATATGATTAATTAAATGTCAGCTGTAGCAATTTTCGGAGTCACCTAGTGCAG | 13000 fluorescence intensity (a.u.) |
| ATTAATGTTATTAGGGTGATTAACTTATTTTGGGATGGACCGGAGTCACCTAGTGCAG | 14500 fluorescence intensity (a.u.) |
| GAGATGATTAATTAGTAGTAATATCAACTAACATCTTTAACGGAGTCACCTAGTGCAG | 31700 fluorescence intensity (a.u.) |
| TGAGATTGAAAGTTGGGGCATAAACACAATTCTCCCTAATCGGAGTCACCTAGTGCAG | 12500 fluorescence intensity (a.u.) |
| TCAAATTCAAATTTGAATTGGGCATGTAAACTTTTGACTTCGGAGTCACCTAGTGCAG | 7650 fluorescence intensity (a.u.) |
| GGTAGTAAATTTTAGCCCTTATTGGATGAGATCAATTATCCGGAGTCACCTAGTGCAG | 4080 fluorescence intensity (a.u.) |
| GTAGAATTGATGGCCGACGGATTCTTTGCTAGGTATATACCGGAGTCACCTAGTGCAG | 12500 fluorescence intensity (a.u.) |
| TTTATCGATGATCGGTCTTGATTGCGTTTCTGTGGTTCGTCGGAGTCACCTAGTGCAG | 10400 fluorescence intensity (a.u.) |
| CTTAATTACGTGTTTAGTGCTTTACTTTGAGTTGGTTCAGCGGAGTCACCTAGTGCAG | 33400 fluorescence intensity (a.u.) |
| TTGGTGATATTGATGGAGCATGTTTTATTTGATAGAATAGCGGAGTCACCTAGTGCAG | 3390 fluorescence intensity (a.u.) |
| AAAATGACAGTTGATGTTGATTCTCTATTGTACACACCTACGGAGTCACCTAGTGCAG | 4160 fluorescence intensity (a.u.) |
| AATTAATTAATTAGTCTGTTCTTATTGCTTAGTGTACTACCGGAGTCACCTAGTGCAG | 53600 fluorescence intensity (a.u.) |
| CTGATTAGAAACAACAGGACAAGTGCGAAAGCATATTCCACGGAGTCACCTAGTGCAG | 6330 fluorescence intensity (a.u.) |
| CTTATAATTGATTTATAGTCTGTCATTGTATCTGCTCTTACGGAGTCACCTAGTGCAG | 65100 fluorescence intensity (a.u.) |
| TTTGCCAATCTATGCATTTACAGGCAAAAGATGGATCCTTCGGAGTCACCTAGTGCAG | 10300 fluorescence intensity (a.u.) |
| ATGTAATTATATTGTAACTTATATATAACTATAATGTAATCGGAGTCACCTAGTGCAG | 41800 fluorescence intensity (a.u.) |
| AAATGATAATGGAATTACGAAGCGCATGGGAAAACGACGGCGGAGTCACCTAGTGCAG | 6590 fluorescence intensity (a.u.) |
| GGCGCGCGCGGGTGATTGATTTCGCCGGCGGCGAGGGGAGCGGAGTCACCTAGTGCAG | 17200 fluorescence intensity (a.u.) |
